Experimental findings from the supplement of paper PMC12632987 are described below.

B1: LC3A_28_1210 (protein)
chain: SAVEEAIAAFRAQVAAAIAAGEPQTVVVRIPGTVTPEGARRIMEAVREEVARAADIPGLAIVIDLDGDVSPEVERIVGEAAEEIEAEFPNVTVIIALEER
B2: LC3A_3_1756 (protein)
chain: MEEKLEEARERLKKLGFSEEVIEKALEVIEELLKKGFEEAVETLLEELERLKDLPDEILLAMLEDILEYVTTNDINEEEVIEKIKEEARVAENESEIIEL
B3: LC3A_28_1306 (protein)
chain: SALRERFEAAIAEAREAAAAGEPVVVTVDISAEELREHLEEILELLERLGEVASEAPGATIIVDVDGSTPAEDLAKLGKRLEEIEKKYPNVTVIIAIRDE
B4: LC3A_3_1546 (protein)
chain: MEELKKETLEELKAAGASDEVIEAAKEAFDLLIEKGYEEALKVLAEETKKLIGLPDELLLDFFTEVLNTLKTEDLNEEEVIEKIKEIARTTKNEAEIEEL
B5: LC3A_28_667 (protein)
chain: SALEENLEKALAEAKELAAKGEPAVITIRVPGDATEEEVEKVIEAMEEIAEILKDIPGSAIIIDLEEGVEEEHRDKLIDAAEEIEKKYPNVTVIIAYPER
B6: LC3A_127_183 (protein)
chain: EVKELAEKLIEKLEAAIKELDKPDPDLEKIEKLLKEALELAKKLVELDPRFEPVLKDIEQAIKEFERLKKAPPEEQEALREHLQMLLDGAIIEVESLLLK
B7: LC3A_28_878 (protein)
chain: MSVEEALAEARAVVREAVARGEEALVEIKITEPISDEEAKELVAGMEEIVEEGASLPRLSIVIDLSNKVSQKAKDIIADGAEEIEKRYPNVTVIIALEEE
B8: LC3A_28_678 (protein)
chain: SPLEKELEEALKKAKEAAAKGEPTVITIKVPGDATQEEIEKFIKALKEIAEILKDVKGSAIIIDLSADLSQEGRDKIIDAAEEINKKYPNVTVIIALEEK
B9: LC3A_free_26_2166 (protein)
chain: DEFLDIASLDAAIDDLEKALALAEANPNVSEELIKLLKEALAHLEKGTLESFKKAIKYLEEALKLVKENKKIPEEDKEKLLELLERALAHAKENAEILES
B10: LC3A_free_39_2214 (protein)
chain: SEEELEELIKEVAKESGLDYEYIKKKIEEIKEIAGLSLEQMKELVKAILEAVKAGADAEEILKRILALAKELKAAGKSPEEIAEALIEEAEDFRNLIPLD
B11: LC3A_3_1683 (protein)
chain: MEELVKEVLEVAKENGLSEEALKALEELLDLLKKRGYLKAIERLLEKLKELKDVDSETLKAMFEDLLYKLKTEDLSEEEIVELIDEEAEVARNEKEIEEL
B12: LC3A_28_654 (protein)
chain: EEVEKELKEALKEAEEAKKKKEPAVITIKVSGKVNEEELKKILETLEKIAELLKDIKGSAIIIDLDKDVKEEFKNKLIDKAEELEKKYPNVTVIIALEER
B13: LC3A_3_1769 (protein)
chain: MEERIEEAAERLRALGADEELIEKAEEALRLLLERGLEETAERFEETLEELVKKSKELALELAEEVLELLKTSKLSPEELAEEVEELIRLALLEAEIEEL
B14: LC3A_102_142 (protein)
chain: DLEKKREELRKRVLEAVKKALEADKSLSEEEKKRLLELAETAVDAALENTVEEAQHGFTDIVAEDKRITALDEIEKINPEIAELLKKLLEEAEKELRAFL
B15: LC3A_28_889 (protein)
chain: SAALESAKAALAQVKEAVAAGDQSPLVLEVKAPSDEENTEKFIELLREIAEAASALSKVTIIIDISEEVSEENRDRIIDAADEIEEEYPNVTVIIALPES
B16: LC3A_74_2072 (protein)
chain: MLTNEEVEKMVDLIGELKGLLELLTEKGLLTEEEVKEAKKAIEEALKILKKEGKLTEAVEGGIDLYAELVKLRLENDPEKAKELFEKSLKELKKLIEKAK
B17: LC3A_free_2_2172 (protein)
chain: MKYRVIIDALGKPEGIAKLVKTLVDLGIEVEVTTEDGTKMTATKETVEEVVKYLLSKKEEIYVELEAVTDKEKADKALDELEKVAEETGISYIVSIEELE
B18: LC3A_28_1060 (protein)
chain: SSIDEQIEAALKEAKEAVAKGEEALVTLTLDKNATEEDLEKILETIREIAELTKSLPSVTIIVDVDNPNKEEDTKRISEVGDELEKKYPNVTVIIALSED
B19: LC3A_132_255 (protein)
chain: SKELLEKALKELKEILDKIVELLQAGKDPWPAVKELEEKAEEYAEKLSLEETEELVKESEKYAEELFAARLDPNNEEARRVLDHIEMLFESVLIEKELKS
B20: LC3A_free_46_2406 (protein)
chain: YIAEIEIDLLADSKEKAEAAKEEIKKAFEEIAKKYGAEIEIESEIEEEPDGTVFVTIKITLRAEDKETLEKAVNEIIDKAEEIAEKHGASIIISYEISEE
B21: LC3A_17_560 (protein)
chain: MEEIKKELEEILEELEKIAKEIEKYDPEAAKKIKKLLEEAKKLLKEGKLKEAAKKLEEAAELAADVLDELEDKDPEKMSNLSMLANGLALEAIGILLKLE
B22: LC3A_23_611 (protein)
chain: MYKVKVIVDIITEPEEAEKLKEEIKKAIEEFLEKNKDIIVESKVKVELEELEDGRTFLRVEIEIIIDGDKETAEKIANELTSLLDEIVPDGVISVEVEKI
B23: LC3A_40_1918 (protein)
chain: VDELAFVAVGISPELLEEVREKVDAYFAEHGTEEERDAAVAALDEAIEALKKGELAVVEITVSSQEQADFIIDQIEEAEERGRAEGHTNALIVNITVKPK
B24: LC3A_3_1724 (protein)
chain: SEEIKKETIATLKEQGKSQETIDAAKELLDELEKKGYLKAMETLLELIKESKDISSETLLAMFKDLLHIVKNEDLSEEEIIKKIKEEFEIAKNEEEIIEL
B25: LC3A_23_631 (protein)
chain: MYRLTIEIDLYGPKEEVEKAVERLKKHAEEAAKKYGATIKELKVEFEVEETPDGEEAFARITIVIEAETKEKIEAVRDALIDETDKLGVSAVVSYEIEKL
B26: LC3A_3_1752 (protein)
chain: MEEKLKEAEERLKKLGFSEEVIKAALEVIKLLLERGFEKAVETLLKELEELKDLPDEIILAMLEDIKRAVEEEDLNEEEVIKIIKEEARIARSESEIIEL
B27: LC3A_102_136 (protein)
chain: EKEKTLKEAAEKALKELEKAIEEDKSLSEEEKEKAKKLAKEAIEAKLESLLTYLKHGFMDLEAEAKMLDALEELEKINPELAKLAKKKIEELEKLAEELE
B28: LC3A_45_1990 (protein)
chain: MALATIDILVPREKLEEALAVIREKAEELKAKYGDDVEVDLERLEESAEATRDEEEVYLELNIYHPDADTALDMADEIVDRLHEVLGDSVAAIISVEELP
B29: LC3A_3_1401 (protein)
chain: FEELKKEAIEFLKEQGASEEVIEAAKEVLEKLEERGYLNAAKTFLEELKKLKDASDELLLDFLNDVLDYLEKNDSSEEEVVKYIKEEATVTLNESEIEEL

Whole data set: some 2,300 sequences, median “median log2 fold change of GCK-ALFA target abundance (FLAG IP / Myc IP barcode read proportion)” near 0.095, cut for the lowest 2% near -0.47. The list shows a part of the results.

The target of the test is MAP1LC3A, Q9H492. In words: median log2 fold change of GCK-ALFA target abundance (FLAG IP / Myc IP barcode read proportion) (log2 ratio); each designed protein is fused to an ALFA-tag nanobody in HEK293 cells to bring the named protein to FLAG-tagged glucokinase (GCK); Myc marks an untargeted standard; higher = target protein stabilised (more abundant). The settings on record: target protein: 3xFLAG-MCP-GCK-ALFA reporter; HEK293 landing pad (RPLP). An outline of the steps:
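HEK293 landing-pad cells received a recombined binder library fused to the ALFA nanobody and were induced with 2 μg mL^−1 doxycycline, then transfected with a plasmid encoding a FLAG-tagged target and a Myc-tagged standard. Lysates were collected after 48 h for anti-FLAG and anti-Myc immunoprecipitation, and the circular RNA barcodes were reverse transcribed, amplified and sequenced. Target abundance for each binder is the median log2 ratio of FLAG to Myc barcode read proportions. Barcodes had to reach a proportion of at least 10^−7 in both replicates, each binder needed at least 3 barcodes per replicate, a pseudocount of 10^−6 was applied, and the two replicates were pooled.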
Regarding B1, the “median log2 fold change” value worked out at 0.115. To B2 belongs 0.303. The figure for B3 is 0.282.

For the molecule B4, the “median log2 fold change” value was 0.259. B5: the “median log2 fold change” value was -0.0934. To B6 belongs 0.181; to B7, 0.258; to B8, 0.295. For B9, the “median log2 fold change” value was 0.247. As to B10, the “median log2 fold change” value was -0.832. Consider B11, for which the “median log2 fold change” value was 0.251. As to B12, the “median log2 fold change” value is 0.153. For B13, the “median log2 fold change” value worked out at 0.0632. B14: the “median log2 fold change” value was -0.165. Take B15: the “median log2 fold change” value is -0.157. In the case of B16, the “median log2 fold change” value is -0.32. As to B17, the “median log2 fold change” value was -8.53e-05. The figure for B18 is -0.165. With B19, the “median log2 fold change” value came out at 0.276. With B20, the “median log2 fold change” value was -0.0841. Turning to B21, the “median log2 fold change” value was 0.339.

Consider B22, for which the “median log2 fold change” value was 0.168. The figure for B23 is -0.142; for B24 it is 0.3. As to B25, the “median log2 fold change” value is -0.014. For B26, the “median log2 fold change” value was 0.166. Turning to B27, the “median log2 fold change” value came out at 0.00055. On to B28, for which the “median log2 fold change” value was -0.282. The figure for B29 is 0.112.
